Experimental data reported in the supplement of paper PMC4604168 (melanoma cell lines).
This is one part of the list. Many values rest on one well or one pass, so single values are uncertain.

Assays:
Test in all cases: cell count relative to DMSO control; melanoma cells; higher = more viable cells
Settings in all cases: library dose: low library concentration; 72 h
MZ2-MEL = tested on: MZ2-MEL
MeWo = tested on: MeWo
RPMI7951 = tested on: RPMI7951
RVH-421 = tested on: RVH-421
SkMel28 = tested on: SkMel28
SkMel2 = tested on: SkMel2
SkMel30 = tested on: SkMel30
UACC62 = tested on: UACC62
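Note: cell number obtained by counting DAPI-stained nuclei in high-throughput microscope images with image analysis software, screen run in 1,536-well plates.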

| Structure (SMILES) | cell count (MZ2-MEL) [%] | cell count (MeWo) [%] | cell count (RPMI7951) [%] | cell count (RVH-421) [%] | cell count (SkMel28) [%] | cell count (SkMel2) [%] | cell count (SkMel30) [%] | cell count (UACC62) [%] |
| --- | --- | --- | --- | --- | --- | --- | --- | --- |
| N#CC[C@H](C1CCCC1)n1cc(-c2ncnc3[nH]ccc23)cn1 [ruxolitinib] + Cn1cnc2c(F)c(Nc3ccc(Br)cc3Cl)c(C(=O)NOCCO)cc21 [selumetinib] (first compound 1 µM, partner dose 0.015 µM) | 111 | 94.4 | 135 | 90 | 117 | 89.7 | 96.5 | 118 |
| CC[C@]1(O)C[C@H]2CN(CCc3c([nH]c4ccccc34)[C@@](C(=O)OC)(c3cc4c(cc3OC)N(C=O)[C@H]3[C@@](O)(C(=O)OC)[C@H](OC(C)=O)[C@]5(CC)C=CCN6CC[C@]43[C@@H]65)C2)C1 [vincristine] + CC(C)C[C@H](NC(=O)[C@H](Cc1ccccc1)NC(=O)c1cnccn1)B(O)O [Bortezomib] (first compound 0.0001 µM, partner dose 0.001 µM) | 88.6 | 69.8 | 31.8 | 58 | 80.1 | 91.2 | 70.4 | 47.4 |
| Cc1cc(Nc2cc(N3CCN(C)CC3)nc(Sc3ccc(NC(=O)C4CC4)cc3)n2)n[nH]1 [Tozasertib] + C[C@@H](N)c1ccc(C(=O)Nc2ccnc3[nH]ccc23)cc1 [RKI983] (first compound 0.006 µM, partner dose 0.4 µM) | 84 | 94.6 | 80.8 | 62.1 | 97.1 | 99.6 | 89.8 | 75.9 |
| CC[C@]1(O)C[C@H]2CN(CCc3c([nH]c4ccccc34)[C@@](C(=O)OC)(c3cc4c(cc3OC)N(C=O)[C@H]3[C@@](O)(C(=O)OC)[C@H](OC(C)=O)[C@]5(CC)C=CCN6CC[C@]43[C@@H]65)C2)C1 [vincristine] + Cc1cc(Nc2cc(N3CCN(C)CC3)nc(/C=C/c3ccccc3)n2)n[nH]1 [ENMD2076] (first compound 0.0001 µM, partner dose 0.04 µM) | 88.5 | 83.6 | 57.5 | 97.9 | 77.9 | 98.8 | 56.2 | 54.4 |
| Cc1cc(Nc2cc(N3CCN(C)CC3)nc(Sc3ccc(NC(=O)C4CC4)cc3)n2)n[nH]1 [Tozasertib] + OCc1c[nH]c2ccccc12 [Indole-3-carbinol] (first compound 0.006 µM, partner dose 0.8 µM) | 101 | 86.7 | 106 | 86.4 | 89.2 | 108 | 81.2 | 78 |
| N#CC[C@H](C1CCCC1)n1cc(-c2ncnc3[nH]ccc23)cn1 [ruxolitinib] + CC(C)C[C@H](NC(=O)[C@H](Cc1ccccc1)NC(=O)c1cnccn1)B(O)O [Bortezomib] (first compound 1 µM, partner dose 0.001 µM) | 95.7 | 79.2 | 107 | 78.1 | 100 | 95.3 | 115 | 126 |
| N#CC[C@H](C1CCCC1)n1cc(-c2ncnc3[nH]ccc23)cn1 [ruxolitinib] + O=C(Nc1cc(C(F)(F)F)cc(C(F)(F)F)c1)c1cc(Cl)ccc1O [IMD0354] (first compound 1 µM, partner dose 0.016 µM) | 102 | 101 | 104 | 96.8 | 126 | 108 | 104 | 125 |
| CC[C@]1(O)C[C@H]2CN(CCc3c([nH]c4ccccc34)[C@@](C(=O)OC)(c3cc4c(cc3OC)N(C=O)[C@H]3[C@@](O)(C(=O)OC)[C@H](OC(C)=O)[C@]5(CC)C=CCN6CC[C@]43[C@@H]65)C2)C1 [vincristine] + O=C(Nc1cc(C(F)(F)F)cc(C(F)(F)F)c1)c1cc(Cl)ccc1O [IMD0354] (first compound 0.0001 µM, partner dose 0.016 µM) | 90.2 | 79.4 | 56.2 | 70.8 | 83.3 | 102 | 38.8 | 53.1 |
| CC[C@]1(O)C[C@H]2CN(CCc3c([nH]c4ccccc34)[C@@](C(=O)OC)(c3cc4c(cc3OC)N(C=O)[C@H]3[C@@](O)(C(=O)OC)[C@H](OC(C)=O)[C@]5(CC)C=CCN6CC[C@]43[C@@H]65)C2)C1 [vincristine] + CCCS(=O)(=O)Nc1ccc(F)c(C(=O)c2c[nH]c3ncc(Cl)cc23)c1F [PLX4720] (first compound 0.0001 µM, partner dose 0.08 µM) | 86.8 | 71.9 | 59.3 | 79.8 | 63.9 | 87.3 | 63.9 | 50.7 |
| Cc1cc(Nc2cc(N3CCN(C)CC3)nc(Sc3ccc(NC(=O)C4CC4)cc3)n2)n[nH]1 [Tozasertib] + CCN(CC)CCNC(=O)c1c(C)[nH]c(/C=C2\C(=O)Nc3ccc(F)cc32)c1C [sunitinib] (first compound 0.006 µM, partner dose 0.4 µM) | 95.8 | 90.4 | 102 | 97.8 | 99.9 | 102 | 73.5 | 86.4 |
| Cc1cc(Nc2cc(N3CCN(C)CC3)nc(Sc3ccc(NC(=O)C4CC4)cc3)n2)n[nH]1 [Tozasertib] + Cn1nnc2c(C(N)=O)ncn2c1=O [temozolomide] (first compound 0.006 µM, partner dose 2 µM) | 89.3 | 88.9 | 65.3 | 103 | 72.5 | 86.9 | 89.8 | 71.5 |
| CC[C@]1(O)C[C@H]2CN(CCc3c([nH]c4ccccc34)[C@@](C(=O)OC)(c3cc4c(cc3OC)N(C=O)[C@H]3[C@@](O)(C(=O)OC)[C@H](OC(C)=O)[C@]5(CC)C=CCN6CC[C@]43[C@@H]65)C2)C1 [vincristine] + OCc1c[nH]c2ccccc12 [Indole-3-carbinol] (first compound 0.0001 µM, partner dose 0.8 µM) | 84.5 | 69.3 | 45.7 | 77.4 | 59.8 | 86.3 | 57 | 44.8 |
| CC[C@]1(O)C[C@H]2CN(CCc3c([nH]c4ccccc34)[C@@](C(=O)OC)(c3cc4c(cc3OC)N(C=O)[C@H]3[C@@](O)(C(=O)OC)[C@H](OC(C)=O)[C@]5(CC)C=CCN6CC[C@]43[C@@H]65)C2)C1 [vincristine] + CCN(CC)CCNC(=O)c1c(C)[nH]c(/C=C2\C(=O)Nc3ccc(F)cc32)c1C [sunitinib] (first compound 0.0001 µM, partner dose 0.4 µM) | 103 | 90.6 | 84.5 | 97.2 | 101 | 110 | 72.2 | 88.8 |
| N#CC[C@H](C1CCCC1)n1cc(-c2ncnc3[nH]ccc23)cn1 [ruxolitinib] + C[C@@H](N)c1ccc(C(=O)Nc2ccnc3[nH]ccc23)cc1 [RKI983] (first compound 1 µM, partner dose 0.4 µM) | 92.4 | 89 | 86 | 57 | 111 | 94 | 106 | 139 |
| N#CC[C@H](C1CCCC1)n1cc(-c2ncnc3[nH]ccc23)cn1 [ruxolitinib] + CN(c1ncccc1CNc1nc(Nc2ccc3c(c2)CC(=O)N3)ncc1C(F)(F)F)S(C)(=O)=O [PF562271] (first compound 1 µM, partner dose 0.08 µM) | 92.7 | 86.1 | 71.6 | 109 | 85.6 | 89.6 | 95.9 | 101 |
| N#CC[C@H](C1CCCC1)n1cc(-c2ncnc3[nH]ccc23)cn1 [ruxolitinib] + Cn1c(Nc2ccc(C(F)(F)F)cc2)nc2cc(Oc3ccnc(-c4ncc(C(F)(F)F)[nH]4)c3)ccc21 [CHIR265] (first compound 1 µM, partner dose 0.08 µM) | 92.8 | 89 | 72.1 | 65.7 | 101 | 91.9 | 65.7 | 98.5 |
| Cc1cc(Nc2cc(N3CCN(C)CC3)nc(Sc3ccc(NC(=O)C4CC4)cc3)n2)n[nH]1 [Tozasertib] + O=C(/C=C/c1cccnc1)NCCCCC1CCN(C(=O)c2ccccc2)CC1 [FK866] (first compound 0.006 µM, partner dose 0.01 µM) | 54.1 | 85.1 | 84 | 111 | 67.5 | 54.5 | 113 | 97 |
| CC[C@]1(O)C[C@H]2CN(CCc3c([nH]c4ccccc34)[C@@](C(=O)OC)(c3cc4c(cc3OC)N(C=O)[C@H]3[C@@](O)(C(=O)OC)[C@H](OC(C)=O)[C@]5(CC)C=CCN6CC[C@]43[C@@H]65)C2)C1 [vincristine] + COc1ccc(Cl)c(Nc2nc3ccccc3nc2NS(=O)(=O)c2cccc(NC(=O)C(C)(C)N)c2)c1 [XL147] (first compound 0.0001 µM, partner dose 0.8 µM) | 88.8 | 96.6 | 83.4 | 74.5 | 86.9 | 98.3 | 78.9 | 66.3 |
| Cc1cc(Nc2cc(N3CCN(C)CC3)nc(Sc3ccc(NC(=O)C4CC4)cc3)n2)n[nH]1 [Tozasertib] + Cn1c(=O)n(-c2ccc(C(C)(C)C#N)cc2)c2c3cc(-c4cnc5ccccc5c4)ccc3ncc21 [NVP-BEZ235] (first compound 0.006 µM, partner dose 0.004 µM) | 102 | 89.9 | 85.3 | 91.8 | 89.7 | 91.8 | 93.6 | 101 |
